The values that follow come from the supplement of paper PMC3724861.

The other results are listed elsewhere or left out.

The subject of this experiment is T1, Caupolican (Caup) homeodomain DNA-binding domain.
T1 sequence: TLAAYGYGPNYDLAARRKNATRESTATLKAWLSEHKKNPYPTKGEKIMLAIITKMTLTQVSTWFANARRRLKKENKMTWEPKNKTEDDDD
The experiment in a line: PBM E-score (8-mer, recovered from the published 9-mer minima) (E-score (dimensionless, -0.5 to 0.5)); Drosophila protein; higher = stronger relative binding preference, active = 0.31 or more. The method, boiled down: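 An enrichment score, with higher meaning stronger, expresses relative binding preference for each short DNA word. The protein used was Caup's homeodomain DNA-binding domain (residues 214-303), produced by in vitro transcription and translation and tested at 100 nM on custom-designed protein binding microarrays. The 8-mer values were recovered from published 9-mer scores, each equal to the lower of its two constituent 8-mer scores.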
Consider ACCCAGAG, for which the “PBM E-score” value was inactive: -0.14.

In the case of CCCGCCAG, the “PBM E-score” value is inactive: -0.179.

With CTACGACA, the “PBM E-score” value was inactive: 0.127.

Regarding CGTTAGGC, the “PBM E-score” value is inactive: -0.153.

On to CAAAAAGA, for which the “PBM E-score” value was inactive: 0.00622.

As for TAGTCTCA, the “PBM E-score” value is inactive: 0.0309.

For the sequence AAGGGTGC, the “PBM E-score” value is inactive: -0.0701.

In the case of ACCCCACA, the “PBM E-score” value was inactive: -0.106.

Turning to CATTTCCG, the “PBM E-score” value is inactive: 0.0434.

With TCAAGGGA, the “PBM E-score” value is inactive: 0.0242.

Regarding AGGCGCGA, the “PBM E-score” value was inactive: -0.139.

As for ATCAACCC, the “PBM E-score” value was inactive: 0.0786.

For the sequence GCTTCCCC, the “PBM E-score” value is inactive: -0.198.

Regarding GTCACTAA, the “PBM E-score” value was inactive: 0.0933.

As for ATTACCGC, the “PBM E-score” value was inactive: 0.0253.

For the sequence GGCCTCGA, the “PBM E-score” value was inactive: -0.142.

Regarding CCTGGCAA, the “PBM E-score” value is inactive: -0.121.

Consider AGCTCCAA, for which the “PBM E-score” value was at least 0.0356.

For ACTGCGAT, the “PBM E-score” value was inactive: -0.0547.

Regarding AGACCGCA, the “PBM E-score” value was inactive: -0.066.

With AATGTTAA, the “PBM E-score” value is inactive: 0.291.

Turning to CAAGCAAG, the “PBM E-score” value was inactive: 0.00743.

For the sequence CACCGACC, the “PBM E-score” value was inactive: -0.0745.

Turning to TTGCAAAA, the “PBM E-score” value is inactive: 0.0136.

As to AATGTCTA, the “PBM E-score” value is inactive: 0.242.

Turning to GGAGATCC, the “PBM E-score” value is inactive: -0.103.

On to GACCCGTC, for which the “PBM E-score” value is inactive: -0.251.

As for CGGGGGGA, the “PBM E-score” value is inactive: -0.365.

With AGGGCTGG, the “PBM E-score” value is inactive: -0.137.

As to AACATATA, the “PBM E-score” value was active: 0.323.

CTAAGTTC: the “PBM E-score” value is inactive: -0.148.

Turning to AGAGTTCA, the “PBM E-score” value was inactive: -0.0412.

Consider CATTTGGA, for which the “PBM E-score” value was inactive: 0.11.

ACATGCTG: the “PBM E-score” value was active: 0.332.

As to ATACTATG, the “PBM E-score” value was inactive: 0.129.

For the sequence ACCCATTC, the “PBM E-score” value was inactive: -0.0449.

In the case of GGGGGCCA, the “PBM E-score” value was inactive: -0.372.

In the case of ATTACTAA, the “PBM E-score” value is inactive: 0.125.

With CGTGCAGC, the “PBM E-score” value was inactive: -0.106.

As for CATGATTC, the “PBM E-score” value was inactive: 0.127.

For the sequence GTCAGAAA, the “PBM E-score” value is inactive: 0.077.

Regarding ACACAACC, the “PBM E-score” value was inactive: 0.228.

As for AATAAAAC, the “PBM E-score” value was inactive: 0.14.

Regarding GGCAAGTA, the “PBM E-score” value is inactive: 0.101.

Regarding ATAATGGA, the “PBM E-score” value was inactive: 0.0921.

Take TTACTAAA: the “PBM E-score” value is inactive: 0.124.

Regarding CCTAGGCG, the “PBM E-score” value is inactive: -0.205.

As to CGAAGTGC, the “PBM E-score” value was inactive: -0.0344.

On to GTATTCCA, for which the “PBM E-score” value is inactive: 0.0333.

As for CAACGTTA, the “PBM E-score” value was inactive: 0.0879.

As for GACGGGGC, the “PBM E-score” value was inactive: -0.27.

With AATTCACA, the “PBM E-score” value is inactive: 0.162.

In the case of AATAAGCG, the “PBM E-score” value was inactive: -0.00945.

On to CCCGTAGC, for which the “PBM E-score” value was inactive: -0.284.

Turning to CTACACAC, the “PBM E-score” value was inactive: 0.175.

AAGCTTCG: the “PBM E-score” value is inactive: -0.0601.

On to ACCCGGTC, for which the “PBM E-score” value was inactive: -0.152.

ACTTATTC: the “PBM E-score” value is inactive: 0.0962.

With CATAATCA, the “PBM E-score” value is inactive: 0.18.

As for CCTCTCTC, the “PBM E-score” value was inactive: -0.164.

Consider ACTGATGC, for which the “PBM E-score” value was inactive: 0.00816.

As to AGTGTCTG, the “PBM E-score” value is inactive: 0.0803.

As to CCGGCTTC, the “PBM E-score” value was inactive: -0.242.

As to AAGTTGAT, the “PBM E-score” value is inactive: 0.171.

In the case of GAGGGTGC, the “PBM E-score” value is inactive: -0.0918.

CGCATGAC: the “PBM E-score” value was inactive: -0.0417.

For TCGTGCAA, the “PBM E-score” value was inactive: 0.132.

With AGCCGCTA, the “PBM E-score” value is inactive: -0.291.

On to CATCAGGA, for which the “PBM E-score” value was inactive: 0.0366.

CTGGCCCA: the “PBM E-score” value was inactive: -0.277.

Consider AGGTGTCG, for which the “PBM E-score” value is inactive: 0.107.

On to CAACTTAC, for which the “PBM E-score” value was inactive: 0.14.

With AATCAAGC, the “PBM E-score” value was inactive: 0.051.

For AGACACCC, the “PBM E-score” value was inactive: -0.00486.

Turning to CGCTCCAG, the “PBM E-score” value is inactive: -0.139.

GAGTGCGC: the “PBM E-score” value was inactive: -0.162.

Turning to ATCACGTG, the “PBM E-score” value is inactive: 0.066.

Turning to ATAATATA, the “PBM E-score” value was inactive: 0.265.

On to AATTAATA, for which the “PBM E-score” value was at least 0.238.

For the sequence ACGCTGTG, the “PBM E-score” value was inactive: 0.0319.

As to GACTTAAC, the “PBM E-score” value was inactive: 0.0505.

Regarding ACAACAAC, the “PBM E-score” value was active: 0.36.

As for ACTCAAAT, the “PBM E-score” value was at least 0.132.

GCACGGCA: the “PBM E-score” value is inactive: -0.059.

Turning to AAATTCCA, the “PBM E-score” value is inactive: 0.132.

For the sequence TCAGAGCA, the “PBM E-score” value was inactive: -0.0887.

Regarding GGGAGGTA, the “PBM E-score” value is inactive: -0.158.

As to ATATGATA, the “PBM E-score” value is inactive: 0.157.

As to AGACGTTG, the “PBM E-score” value was inactive: -0.0884.

On to ACCGGAAC, for which the “PBM E-score” value is inactive: 0.0421.

In the case of ACCCGTTG, the “PBM E-score” value is inactive: 0.0193.

For the sequence CTTTGCAA, the “PBM E-score” value was inactive: -0.0379.

With GACTCCGC, the “PBM E-score” value is inactive: -0.113.

As for CCTCTCAG, the “PBM E-score” value is inactive: -0.194.

Consider GGCGCTAA, for which the “PBM E-score” value is inactive: -0.171.

Regarding GTCGGGCA, the “PBM E-score” value was inactive: -0.121.

As to ACCTAGAG, the “PBM E-score” value is inactive: -0.0879.

For ACTTTAGG, the “PBM E-score” value was inactive: 0.0104.

With AAATCGAT, the “PBM E-score” value was inactive: 0.137.

As to CACAGGAC, the “PBM E-score” value was inactive: 0.0267.

On to CAAGCGCC, for which the “PBM E-score” value is inactive: -0.176.

Turning to AGGGTTGC, the “PBM E-score” value is inactive: -0.0679.

With AGTAGTTC, the “PBM E-score” value is inactive: 0.144.

For the sequence ATTATTGA, the “PBM E-score” value is inactive: 0.124.

With CCCCGTAA, the “PBM E-score” value was inactive: -0.0757.

ATGAAACG: the “PBM E-score” value is inactive: -0.0209.

As for GAGCCTAC, the “PBM E-score” value is inactive: -0.0759.

On to CCAGCCAC, for which the “PBM E-score” value is inactive: -0.0929.

AGAATGCT: the “PBM E-score” value is inactive: 0.0061.

TACATGGA: the “PBM E-score” value is active: 0.413.

Regarding AAATGTTG, the “PBM E-score” value was inactive: 0.201.

As for AAGAGAGG, the “PBM E-score” value was inactive: -0.0847.

For the sequence GAAAAGTC, the “PBM E-score” value is inactive: 0.00369.

Consider ATCTCACA, for which the “PBM E-score” value was inactive: 0.0963.

Regarding CCAATATC, the “PBM E-score” value was inactive: 0.0605.

In the case of ACCTACCC, the “PBM E-score” value is inactive: -0.14.

ATAATTCC: the “PBM E-score” value is inactive: 0.119.

Turning to GTCCGGGA, the “PBM E-score” value is inactive: -0.0236.

Take TAACATTA: the “PBM E-score” value was at least 0.291.

For AGCAAAGC, the “PBM E-score” value was inactive: -0.129.

As to CCTCACGA, the “PBM E-score” value is inactive: -0.0936.

Turning to TGCGAAAA, the “PBM E-score” value is inactive: 0.0415.

On to CTCAATGA, for which the “PBM E-score” value was inactive: 0.0148.

Consider CCCCGTAG, for which the “PBM E-score” value was inactive: -0.229.

With AGTGGCAG, the “PBM E-score” value was inactive: -0.107.

As to ATTATATG, the “PBM E-score” value is inactive: 0.222.

As to GGTTCTCA, the “PBM E-score” value was inactive: 0.0149.

In the case of CACTTCGG, the “PBM E-score” value was inactive: -0.119.

As to CATCCAAA, the “PBM E-score” value was inactive: 0.151.

In the case of TAGGACCA, the “PBM E-score” value is inactive: -0.0476.

On to CGTGCGAC, for which the “PBM E-score” value is inactive: 0.0397.

For AACCGGTG, the “PBM E-score” value was inactive: -0.145.

For the sequence ACTGTTCG, the “PBM E-score” value was inactive: 0.108.

On to ATAACGCC, for which the “PBM E-score” value was inactive: -0.0556.

In the case of TAAACGTA, the “PBM E-score” value is inactive: 0.168.

Regarding AACTCTTC, the “PBM E-score” value was inactive: -0.00813.

Turning to ATCGCGTA, the “PBM E-score” value is inactive: 0.0324.

Regarding ACGTGTGA, the “PBM E-score” value was inactive: 0.155.

As for AGACGAGG, the “PBM E-score” value is inactive: -0.108.

Regarding AGTAATTA, the “PBM E-score” value was inactive: 0.235.

For CCTCCTTA, the “PBM E-score” value was inactive: -0.127.

For the sequence GAGAAACC, the “PBM E-score” value is inactive: -0.0114.

For ACCTATGG, the “PBM E-score” value was inactive: -0.0717.
